# The list shows a part of the results.
# B1: TLEC1 (Arabidopsis thaliana), Q9C5Q9 (protein)
# chain: MSGASSVSSICSSNVSLIPTGPQVFINFRGKDLRKGFMSFLKPALKKEKINVFIDEQEERGKYLISLFDTIGESKIALVIFSEGYCESHWCMDELVKIKEYMDQNRLIIIPIFYRLDLDVVKDLTGKFGDNFWDLVDKYQPEPKKLHKWTEALFSVCELFSLILPKHSDISDRDFVKSIVKAVKKVQKNFFQRRNGEIEYQDFSVPACKLTITMHESPNEEAVQVTVLNEFYQMKNQSPVPSYEFKFWVDLTRPKGNVFMIDARDLSIAWSEDSNHWTWLPLPNQNSNESVMEIAFLKSASWLDVAGKFDTRYLTPRTRYEVVFVVKLEYTFEWETLVKLKLDLPNTWEKPQEQSVDMFDYISDQWLDIPVGEFTTSKKNVGEISFAMYEHECQLWKSGLFVKGVTIRPKY
# Columns and labels:
# Assay in all cases: glycan array binding signal (z-score within array); higher = stronger binding
# Conditions in all cases: glycan notation: IUPAC condensed, linker removed
# [1] = target: Fuc(a1-2)Gal
# In short: (§1)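 Columns mapping to the same glycan were averaged after glycan names were converted to IUPAC-condensed notation. The data come from 3228 arrays in the Consortium for Functional Glycomics database, limited to those with an available protein sequence. Binding is reported as a within-array Z-score averaged across arrays of one protein sequence and across linkers.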
# [2] = target: Fuc(a1-2)Gal(b1-3)GalNAc
# In short: as §1
# [3] = target: Fuc(a1-2)Gal(b1-3)GalNAc(b1-3)Gal
# In short: as §1
# [4] = target: Fuc(a1-2)Gal(b1-3)GalNAc(b1-3)Gal(a1-4)Gal(b1-4)Glc
# In short: as §1
# [5] = target: Fuc(a1-2)Gal(b1-3)GalNAc(b1-3)Gal(b1-4)Glc
# In short: as §1
# [6] = target: Fuc(a1-2)Gal(b1-3)GalNAc(b1-4)[Neu5Ac(a2-3)]Gal(b1-4)Glc
# In short: as §1
# [7] = target: Fuc(a1-2)Gal(b1-3)[Fuc(a1-4)]GlcNAc
# In short: as §1
# [8] = target: Fuc(a1-2)Gal(b1-4)Glc
# In short: as §1
# [9] = target: Fuc(a1-2)Gal(b1-4)Glc6S
# In short: as §1
# [10] = target: Fuc(a1-2)Gal(b1-4)GlcNAc
# In short: as §1
# [11] = target: Fuc(a1-2)Gal(b1-4)GlcNAc(b1-3)Gal(b1-4)GlcNAc
# In short: as §1
# [12] = target: Fuc(a1-2)Gal(b1-4)GlcNAc(b1-3)Gal(b1-4)GlcNAc(b1-3)Gal(b1-4)GlcNAc
# In short: as §1
# [13] = target: Fuc(a1-2)Gal(b1-4)GlcNAc6S
# In short: as §1
# [14] = target: Fuc(a1-2)Gal(b1-4)[Fuc(a1-3)]GalNAc(b1-3)Gal(b1-4)[Fuc(a1-3)]GlcNAc
# In short: as §1
# [15] = target: Fuc(a1-2)Gal(b1-4)[Fuc(a1-3)]GalNAc(b1-3)Gal(b1-4)[Fuc(a1-3)]GlcNAc(b1-3)Gal(b1-4)[Fuc(a1-3)]GalNAc
# In short: as §1
# [16] = target: Fuc(a1-2)Gal(b1-4)[Fuc(a1-3)]GlcNAc
# In short: as §1
# [17] = target: Fuc(a1-2)Gal6S(b1-4)Glc
# In short: as §1
# [18] = target: Fuc(a1-2)Gal6S(b1-4)Glc6S
# In short: as §1
# [19] = target: Fuc(a1-2)Gal6S(b1-4)GlcNAc
# In short: as §1
# [20] = target: Fuc(a1-2)GlcNAc
# In short: as §1
# [21] = target: Fuc(a1-2)[Gal(a1-3)]Gal
# In short: as §1
# [22] = target: Fuc(a1-2)[Gal(a1-3)]Gal(b1-3)GlcNAc
# In short: as §1
# [23] = target: Fuc(a1-2)[Gal(a1-3)]Gal(b1-4)Glc
# In short: as §1
# [24] = target: Fuc(a1-2)[Gal(a1-3)]Gal(b1-4)GlcNAc
# In short: as §1
# [25] = target: Fuc(a1-2)[Gal(a1-3)]Gal(b1-4)[Fuc(a1-3)]GlcNAc
# In short: as §1
# [26] = target: Fuc(a1-2)[Gal(a1-4)]Gal(b1-4)GalNAc
# In short: as §1
# [27] = target: Fuc(a1-2)[GalNAc(a1-3)]Gal
# In short: as §1
# [28] = target: Fuc(a1-2)[GalNAc(a1-3)]Gal(b1-3)GlcNAc
# In short: as §1
# [29] = target: Fuc(a1-2)[GalNAc(a1-3)]Gal(b1-4)Glc
# In short: as §1
# [30] = target: Fuc(a1-2)[GalNAc(a1-3)]Gal(b1-4)GlcNAc
# In short: as §1
# [31] = target: Fuc(a1-2)[GalNAc(a1-3)]Gal(b1-4)[Fuc(a1-3)]GlcNAc
# In short: as §1
# [32] = target: Fuc(a1-2)[GalNAc(a1-4)]Gal(b1-4)GlcNAc
# In short: as §1
# [33] = target: Fuc(a1-3)GlcNAc
# In short: as §1
# [34] = target: Fuc(a1-3)[Gal(b1-4)]Glc6S
# In short: as §1
# [35] = target: Fuc(a1-3)[Gal(b1-4)]GlcNAc
# In short: as §1
# [36] = target: Fuc(a1-3)[Gal(b1-4)]GlcNAc(b1-3)Gal(b1-3)[Fuc(a1-4)]GlcNAc
# In short: as §1
# [37] = target: Fuc(a1-3)[Gal(b1-4)]GlcNAc(b1-4)Gal(b1-4)[Fuc(a1-3)]GlcNAc
# In short: as §1
# [38] = target: Fuc(a1-3)[Gal(b1-4)]GlcNAc(b1-4)Gal(b1-4)[Fuc(a1-3)]GlcNAc(b1-4)Gal(b1-4)[Fuc(a1-3)]GlcNAc
# In short: as §1
# [39] = target: Fuc(a1-3)[Gal(b1-4)]GlcNAc6S
# In short: as §1
# [40] = target: Fuc(a1-3)[Gal3S(b1-4)]Glc
# In short: as §1
# [41] = target: Fuc(a1-3)[Gal3S(b1-4)]Glc6S
# In short: as §1
# [42] = target: Fuc(a1-3)[Gal3S(b1-4)]GlcNAc
# In short: as §1
# [43] = target: Fuc(a1-3)[Gal3S(b1-4)]GlcNAc6S
# In short: as §1
# [44] = target: Fuc(a1-3)[GalNAc(b1-4)]Gal(b1-4)GlcNAc
# In short: as §1
# [45] = target: Fuc(a1-4)GlcNAc
# In short: as §1
binder,measurement,setting,value
B1,glycan array binding signal (z-score),[1],1.05
same,glycan array binding signal (z-score),[2],0.449
same,glycan array binding signal (z-score),[3],0.538
same,glycan array binding signal (z-score),[4],0.327
same,glycan array binding signal (z-score),[5],-0.058
same,glycan array binding signal (z-score),[6],-0.032
same,glycan array binding signal (z-score),[7],-0.075
same,glycan array binding signal (z-score),[8],1.08
same,glycan array binding signal (z-score),[9],-0.534
same,glycan array binding signal (z-score),[10],1.05
same,glycan array binding signal (z-score),[11],0.966
same,glycan array binding signal (z-score),[12],0.949
same,glycan array binding signal (z-score),[13],-0.349
same,glycan array binding signal (z-score),[14],1.49
same,glycan array binding signal (z-score),[15],1.02
same,glycan array binding signal (z-score),[16],1.13
same,glycan array binding signal (z-score),[17],-0.075
same,glycan array binding signal (z-score),[18],0.045
same,glycan array binding signal (z-score),[19],-0.112
same,glycan array binding signal (z-score),[20],0.564
same,glycan array binding signal (z-score),[21],-0.268
same,glycan array binding signal (z-score),[22],-0.321
same,glycan array binding signal (z-score),[23],-0.089
same,glycan array binding signal (z-score),[24],-0.175
same,glycan array binding signal (z-score),[25],0.143
same,glycan array binding signal (z-score),[26],-0.137
same,glycan array binding signal (z-score),[27],-0.181
same,glycan array binding signal (z-score),[28],0.897
same,glycan array binding signal (z-score),[29],0.249
same,glycan array binding signal (z-score),[30],0.22
same,glycan array binding signal (z-score),[31],0.351
same,glycan array binding signal (z-score),[32],-0.261
same,glycan array binding signal (z-score),[33],1.82
same,glycan array binding signal (z-score),[34],-0.456
same,glycan array binding signal (z-score),[35],-0.301
same,glycan array binding signal (z-score),[36],-0.421
same,glycan array binding signal (z-score),[37],-0.048
same,glycan array binding signal (z-score),[38],-0.387
same,glycan array binding signal (z-score),[39],-0.407
same,glycan array binding signal (z-score),[40],-0.367
same,glycan array binding signal (z-score),[41],-0.083
same,glycan array binding signal (z-score),[42],-0.384
same,glycan array binding signal (z-score),[43],0.212
same,glycan array binding signal (z-score),[44],-0.305
same,glycan array binding signal (z-score),[45],0.192

# Source: the supplement of paper PMC8728848
